Assay results taken from the supplement of paper PMC12217912.
This is one part of the list. Sequences were assembled here from the parent chain. Inactive controls read about 0.05.

B1: TEV protease; numbered along this chain (parent)
chain: MGESLFKGPRDYNPISSSICHLTNESDGHTTSLYGIGFGPFIITNKHLFRRNNGTLVVQSLHGVFKVKDTTTLQQHLVDGRDMIIIRMPKDFPPFPQKLKFREPQREERICLVTTNFQTKSMSSMVSDTSCTFPSGDGIFWKHWIQTKDGQCGSPLVSTRDGFIVGIHSASNFTNTNNYFTSVPKNFMELLTNQEAQQWVSGWRLNADSVLWGGHKVFMVKPEEPFQPVKEATQL

Variants of: B1
Experiment: raw area under fraction-flipped curve 0-4 h after induction (AUC4h, not background-subtracted), DNA-recorder readout of cleavage of the substrate (dimensionless); higher = more cleavage of the substrate by the protease variant
Conditions: temperature: 34 °C; time window: 0-4 h after rhamnose induction
Protocol: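 In vivo DNA recorder in E. coli TOP10(DE3) ΔrhaA at 34 °C. Each TEVp single-site mutant (parent TEVp 0) is paired with a single-site variant of the 7-mer TEVs (canonical ENLYFQ|S). The substrate sits between flexible linkers in a Bxb1-sfGFP-TEVs-SsrA fusion, so cleavage stabilises Bxb1 and speeds flipping of a recombination array, read by NGS. The value is the raw area under the fraction-flipped curve over 0-4 h after rhamnose induction (AUC4h), with ≥20 reads per time point. It is not background-subtracted; inactive controls average about 0.047.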
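Further: Bxb1 expression induced with 0.2% (w/v) L-rhamnose at OD600 near 0.5, cultures sampled hourly, flipped fraction per protease–substrate barcode pair counted by paired-end Illumina sequencing.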

Variant | area with substrate ENLYFQA | area with substrate ENLYFQC | area with substrate ENLYFQD | area with substrate ENLYFQE | area with substrate ENLYFQF | area with substrate ENLYFQG | area with substrate ENLYFQH | area with substrate ENLYFQI | area with substrate ENLYFQK | area with substrate ENLYFQL | area with substrate ENLYFQM | area with substrate ENLYFQN | area with substrate ENLYFQP | area with substrate ENLYFQR | area with substrate ENLYFQS | area with substrate ENLYFQT | area with substrate ENLYFQV | area with substrate ENLYFQW | area with substrate ENLYFQY | area with substrate ENLYFQQ
I43Q | 0.0451 | 0.036 | 0.0542 | 0.0664 | 0.059 | 0.0527 | 0.0574 | 0.0509 | 0.0443 | 0.0307 | 0.0417 | 0.0446 | 0.0559 | 0.0541 | 0.0475 | 0.0457 | 0.0322 | 0.0415 | 0.042 | 
I43E | 0.0389 | 0.0689 | 0.0431 |  | 0.0165 | 0.0408 | 0.042 |  | 0.0433 | 0.0565 | 0.0468 | 0.0441 | 0.0535 | 0.0417 | 0.0473 | 0.0557 |  | 0.0283 | 0.036 | 0.0552
I43A | 0.088 | 0.0687 | 0.0711 |  | 0.0528 | 0.0735 | 0.0734 | 0.0604 | 0.0702 | 0.06 | 0.0609 | 0.0707 |  |  | 0.0754 | 0.0544 | 0.0554 |  | 0.0575 | 
V78P | 0.0999 | 0.0984 |  |  |  | 0.0789 | 0.0674 | 0.0595 |  | 0.0609 | 0.0572 | 0.0587 | 0.0641 | 0.0493 | 0.0731 | 0.0547 | 0.061 | 0.0331 | 0.0548 | 0.0741
H47E | 0.0492 | 0.0918 | 0.0443 | 0.0578 |  | 0.0659 |  | 0.0476 |  | 0.0597 | 0.0553 | 0.0641 |  | 0.0527 | 0.06 | 0.0541 | 0.0502 | 0.0475 | 0.0565 | 
Q59I | 0.0962 | 0.115 |  |  |  | 0.145 |  | 0.0373 | 0.0638 | 0.0457 | 0.112 | 0.0736 |  | 0.0586 | 0.106 |  | 0.0733 | 0.0648 | 0.077 | 0.0803
F41I | 0.09 | 0.105 | 0.0867 | 0.0642 |  | 0.0947 | 0.0826 | 0.0516 | 0.053 | 0.0672 | 0.0919 | 0.0718 | 0.0591 | 0.0574 | 0.0947 | 0.0623 |  | 0.0616 | 0.0655 | 0.0692
F49M | 0.0814 | 0.0623 | 0.0549 | 0.0601 | 0.0445 | 0.0681 | 0.0608 |  | 0.0624 | 0.0612 | 0.0578 | 0.0559 | 0.0606 | 0.0586 | 0.0694 | 0.0581 | 0.0658 | 0.0706 | 0.0497 | 0.0707
F49A | 0.056 | 0.0725 | 0.0568 | 0.0472 |  | 0.0871 | 0.0662 | 0.0467 | 0.0601 | 0.042 | 0.0558 | 0.0403 | 0.0666 | 0.0492 | 0.0602 | 0.0521 | 0.0533 | 0.0666 | 0.0628 | 
F65G | 0.0869 |  |  |  | 0.0749 | 0.0789 | 0.0631 |  | 0.0377 |  | 0.0806 |  |  | 0.0477 | 0.0899 | 0.0646 |  |  |  | 0.053
F65L | 0.121 | 0.17 | 0.0655 |  |  |  | 0.073 |  | 0.0561 | 0.0455 | 0.0817 |  |  | 0.0835 | 0.108 |  |  |  |  | 0.0492
N53V | 0.0751 | 0.0598 | 0.0573 |  |  | 0.078 | 0.0672 | 0.0633 |  | 0.0576 | 0.067 | 0.0729 |  | 0.0476 | 0.0801 | 0.0543 |  | 0.0656 | 0.0587 | 
N53C | 0.0934 | 0.112 | 0.0702 |  |  |  |  |  | 0.0771 |  | 0.0794 | 0.0791 |  | 0.0618 | 0.093 | 0.0654 | 0.0584 | 0.0079 | 0.0913 | 
T55S | 0.0853 | 0.122 | 0.0626 |  |  | 0.0575 | 0.101 | 0.0738 |  | 0.0621 | 0.0986 | 0.0812 |  | 0.0605 | 0.103 | 0.0733 | 0.0546 | 0.0535 | 0.0656 | 
R50K | 0.0719 | 0.0961 |  |  |  | 0.0935 |  | 0.0573 | 0.0588 | 0.0597 | 0.0667 | 0.0793 | 0.0606 | 0.0405 | 0.0995 | 0.0573 | 0.0631 | 0.054 | 0.0603 | 
T44S | 0.0887 | 0.123 |  |  |  | 0.0864 | 0.0853 | 0.0676 | 0.0572 | 0.0533 | 0.0841 | 0.0724 | 0.0547 | 0.0607 | 0.0946 | 0.0742 |  | 0.041 |  | 0.0642
T44P | 0.031 | 0.0356 | 0.0315 |  |  | 0.123 | 0.0475 |  | 0.0418 | 0.043 | 0.0395 | 0.0405 | 0.0268 | 0.0419 | 0.0416 | 0.079 | 0.0422 | 0.0409 | 0.0256 | 0.0407
T70I | 0.0531 |  | 0.046 |  |  |  |  | 0.0754 | 0.0479 | 0.062 | 0.0664 | 0.0677 |  | 0.0593 | 0.0781 | 0.0619 |  | 0.0646 |  | 
H76R | 0.0855 | 0.0844 | 0.0629 |  | 0.0863 | 0.0656 | 0.0573 | 0.0402 | 0.0285 | 0.0495 | 0.0685 | 0.062 |  |  | 0.0778 | 0.0493 |  | 0.0656 | 0.0676 | 0.0668
K66L | 0.0917 | 0.165 | 0.0686 | 0.0651 | 0.107 | 0.111 | 0.0846 | 0.0617 | 0.0616 | 0.0494 | 0.0847 | 0.0766 | 0.0524 | 0.065 | 0.104 | 0.07 | 0.0552 | 0.0603 | 0.0833 | 
D69E | 0.0731 | 0.108 |  |  |  |  | 0.099 |  |  |  | 0.0971 |  |  | 0.0675 | 0.0887 | 0.0633 | 0.0569 | 0.125 | 0.0871 | 0.0599
G54Q | 0.0873 | 0.0669 | 0.0546 |  | 0.0639 | 0.0544 | 0.0534 | 0.0741 |  | 0.0543 | 0.0662 | 0.0574 |  | 0.0534 | 0.0705 |  | 0.0639 | 0.0664 | 0.0769 | 
G54V | 0.0615 | 0.0327 |  |  |  | 0.072 | 0.0659 | 0.0488 |  | 0.0544 | 0.0668 | 0.0509 | 0.0588 | 0.0513 | 0.0672 | 0.0515 |  | 0.0633 | 0.0536 | 0.0507
